The full ranking holds about 33,000 sequences; the median of “E-score (-0.5 to 0.5)” is about -0.054, and the highest 2% start at about 0.39. The list shows a part of the results.
Molecular target: Ylr278c (UniProt Q05854)
Assay: PBM E-score (8-mer binding enrichment) (E-score (-0.5 to 0.5)); higher = stronger / more preferred TF binding; most listed sequences are background and not binding sites
Conditions: protein concentration: 200 nM; construct: GST-DNA-binding domain
Outline: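 For each ungapped eight-base word taken together with its reverse complement, the Universal PBM Analysis Suite assigned an E-score. Binding data came from GST-tagged yeast transcription factors, applied at about 100-200 nM, on universal all-10-mer Agilent arrays made double-stranded by primer extension. Fluorescent anti-GST marked bound protein, and scans were normalised with masliner.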

Sequence | PBM E-score
AAGATACA | -0.189
ATATGGGG | -0.00676
AGAGAGCG | -0.0399
CACCAAGC | -0.11
ATGGGGGC | -0.219
CAGTCCCC | -0.278
GGTCTGTA | 0.0393
CACAAATG | -0.129
ACTAGACG | -0.202
GCGGACCC | 0.354
GTACGGCA | 0.125
CAACGGAA | 0.334
CCAACCGG | 0.25
AGTTCCTC | -0.00062
TGGACCAA | -0.022
ATAGACAC | -0.255
AGATACAC | -0.0474
ACCGGGCT | 0.223
GCCGATCA | 0.188
GATTCGAA | 0.102
ACTAATTA | -0.09
CACCATCC | -0.126
CATCACAC | -0.096
AGATTGCT | -0.142
AAATCAGC | -0.00055

Sequence | PBM E-score
GAACAATC | 0.0629
CATGCAGG | -0.21
CTTCGCCC | 0.0298
AGTGATGC | -0.147
GTTGAATA | -0.0893
AAATGAGC | -0.0373
ATATCCAC | -0.0464
CGTACCTC | -0.0106
ATTCGGCG | 0.286
AGGCGTAT | -0.308
CAACGCAA | -0.0281
GGCGAACA | 0.0518
ACATGGGG | -0.0148
CCCGGCGG | 0.396
CGTCGTCC | 0.0623
GCTAACAC | -0.116
CCCATAAG | 0.0166
ACCCTAGG | -0.298
AGCCTCCT | -0.196
AATGGCTA | -0.126
GGGTATGA | 0.00815
CCAAAAGA | -0.0991
AGGCGAGC | -0.237
CACCGACG | 0.277
GTTAGCAA | -0.138

Sequence | PBM E-score
CTGCCGCC | -0.0057
GTTGCCTA | 0.0336
CAAGTTGA | -0.0934
GACCATCA | 0.0652
AAAGTTAA | -0.0277
AAGTAAGT | -0.0844
AACGGCAG | 0.026
ACTTATAC | 0.00673
ATTGTGTC | -0.0502
CAATTCTC | 0.0454
GATCTCGC | 0.0872
ATACCGCG | 0.242
ATTTATTG | -0.0635
ATAGAAAG | -0.0777
GTTGGACA | -0.22
GAGCGCTC | 0.0431
TACTATGA | -0.154
AGTCGGAC | 0.366
CCGATTTC | 0.303
AACTTCTC | -0.0643
CCCCGCCC | 0.33
ATACCAAA | -0.0676
ATGCACTC | -0.116
ACAGATAG | -0.155
GCTGGGTA | -0.198

Sequence | PBM E-score
AACAGTAT | -0.192
ACTTATGG | -0.0758
CCATTGAG | -0.0609
GGAGTTTA | 0.332
AACGTTCC | 0.035
CTTGAGAA | -0.386
ATTTCGTA | -0.062
GCTAGTGA | -0.236
CCGGTTAG | 0.293
CGGCGCAG | 0.219
ACCCTCAT | -0.234
AGTACCAC | -0.127
AACGAGTG | -0.145
TAACAGGA | -0.129
ATACTCCG | 0.487
GCCGATAC | 0.298
CGAAATGC | 0.0951
CACGCATC | 0.112
CAACAATA | -0.0505
ACCCCCCT | -0.339
TACTGTCA | -0.188
AGGATTCA | -0.154
CTCCAAGA | -0.206
CTGGAGTC | -0.0908
CTACCGAA | 0.0419

Sequence | PBM E-score
CGCCTAAC | 0.0448
GGCTAGTA | -0.0152
AGTTAGGA | 0.0174
ACTTCCCG | 0.229
ACCCTCGT | -0.0641
AATTGCGC | 0.255
CATGGTAA | -0.208
ACGTATAC | -0.157
CTTTCCAC | 0.132
AGGAATGA | -0.129
GTGCGACA | -0.011
AGTTAGTC | 0.0844
ACGCAAGT | -0.195
CGTATCGA | -0.228
CGTGGGCA | -0.16
CCACTCGA | -0.215
AACATTGA | -0.186
CGTGAGAA | -0.0134
CGCGGGAC | 0.305
CATGGCAC | 0.133
CACTTCCG | 0.271
CCGGTGAC | 0.297
ACTAGCAC | -0.156
CTCCGATA | 0.462
AGTTGTAA | -0.216

Sequence | PBM E-score
ATTTTATA | 0.138
GCTTCTAC | -0.123
AGCAATGG | -0.0209
GACCAGTC | -0.0978
ATGGTGAG | -0.236
AGGACAGA | -0.225
CTTGAATA | -0.0169
CCTCCCAA | -0.0257
ACGCTGCT | -0.153
GAACTAGA | -0.0703
GGAGGAGA | 0.13
CAAATTGC | 0.0276
CGTCTCTA | -0.114
ATATGCTA | -0.0729
GCAAATAA | 0.124
AACCGTCA | -0.145
CTGGCGAC | -0.273
AACCTTCG | 0.0316
TTGTCAAA | -0.0285
GTACTCAC | -0.124
AAGTAAAG | 0.00681
TAGGTAGA | -0.202
ATTCCCAG | 0.191
CCTTCAAA | 0.0759
CAGGCTGC | -0.284

Sequence | PBM E-score
GTATTAAA | 0.0419
CCTAACAA | -0.218
CATCGCTC | 0.0563
TAACGGTA | -0.161
TACTTTGA | -0.223
GGGTCCGA | 0.366
GGATCGCA | -0.0558
CCAGGAGA | -0.0398
CATGGAGA | -0.0191
CCTGATAA | -0.208
CCCCTAAA | -0.0849
ATTAGGAG | 0.0759
CCGATAAC | 0.363
ACAGTGAT | -0.19
AATGCGGG | 0.299
ATGGAAGC | -0.00732
CAGACATC | -0.143
GTTTTGAA | -0.158
GGCGGTAA | 0.313
CCAAGTGA | -0.121
ATCGCACC | 0.0302
AAGGTTCC | 0.0514
GGCGTACC | 0.11
CATAGATA | -0.0509
TTCGCGAA | 0.169

Sequence | PBM E-score
CGGAAAGC | 0.336
AAACTTAG | -0.113
ATCTGCCC | 0.0953
TCGATACA | -0.102
ATAAAGCA | -0.125
ATATCAAG | -0.0191
CATACAGG | -0.231
AGATGTAA | -0.00025
CCCCTGAG | -0.18
CTATCATC | 0.0685
ACTGAGGG | -0.251
CGGTCCAA | 0.104
AGGAACTA | -0.0554
ATAGGAAG | -0.215
ATGCCAGG | -0.0491
CGTGATCA | -0.0575
AATCGTTA | -0.0844
TCCACGGA | 0.406
ATATGCCC | -0.0979
GGCGCTGA | 0.136
ATCATGGC | -0.125
ACATGTCG | -0.0102
GTTTTCAA | 0.0165
GGAGCATA | 0.211
CCGCCACG | 0.141

Sequence | PBM E-score
CACCGTTC | -0.0165
ACTTGGTC | 0.0686
ACTATGGG | -0.0735
AGTCGTCC | -0.0402
ACTGCCAC | -0.27
AAGCATAC | -0.161
GTCAATGA | -0.211
CTGAGATA | -0.0373
ACTGAGCT | 0.0262
AAAGACTT | -0.182
CAAGGCGC | 0.0157
AAAATGCG | 0.151
GGGTGCAA | 0.129
TAAAGATA | -0.0605
GGGAAAGA | -0.0683
CTTCACTA | -0.0407
ACGCTAGA | -0.15
ACCGAGGA | 0.103
TAGTGCCA | -0.192
ATCAAGTA | -0.0983
TAGTAAAA | -0.04
CCATACGA | -0.198
ACAATCTG | -0.116
AGTATGTA | -0.105
ACACCGGC | 0.355

Sequence | PBM E-score
CGACTGTA | -0.139
AAGCAGTC | -0.122
TATCCTAA | -0.128
CCAGCTCC | 0.22
GAATTGCA | 0.0586
ATACCTAC | -0.0517
GATGACCC | -0.216
ACTCGAAC | -0.163
AGACTGCG | -0.114
TATTCTGA | -0.109
CTATGGAG | -0.29
AAGTTTAC | -0.103
GCTTGAGA | -0.136
AGTACGGC | 0.108
ATAGTTTA | -0.174
CTAGACGA | -0.268
ACACCGGG | 0.341
AGACTGGG | -0.187
AACAAGAG | -0.097
CATGCCAC | -0.167
AAAATTAA | 0.0191
CTTTCACA | -0.0382
GCGGCCTA | 0.0197
CTACTCAG | -0.274
TACGTGAA | -0.244

Sequence | PBM E-score
CTAAGGGA | -0.169
AGCGGTCC | 0.222
AATGCCTG | -0.129
CCCGACGG | 0.341
ATAAGTTC | 0.215
TATCGCCA | -0.129
CATCACAA | -0.173
TATCGACA | -0.13
ACAAGTCT | -0.258
AGACATAT | -0.0842
CACTCGTC | -0.0408
GAACTACA | 0.0153
GTGATCCA | -0.102
AAAGCCGG | 0.391
AGCGGCGC | 0.0739
CGACATCA | 0.129
GGGAGCCA | -0.264
AGATAGTA | -0.18
GCCCTTAA | -0.0754
GAAGGGTC | -0.0007
AGGTTTGG | -0.138
ACAAGTCC | 0.161
ATCTAGAT | -0.314
CAGTGCCA | -0.371
ATCAGTCA | -0.146

Sequence | PBM E-score
ATGAACTC | -0.0295
CTCTTAGC | -0.0954
GAATAACA | 0.0628
AGGAGAAA | -0.0288
CTCTATGA | -0.324
AAATTGCG | 0.197
AATAGACA | -0.221
GACCACTA | -0.00356
GTGTACAA | 0.0677
ACCGGAGT | 0.481
GGCTTTAC | 0.243
ACGCTCCC | 0.0269
AAGCCATA | -0.379
GAACGGTC | 0.0597
TCTTTTCA | -0.0575
ATTACCAC | -0.165
AGGAAAAT | 0.037
AATATATC | 0.154
GAAGCTTA | -0.11
AACTGACA | -0.167
CTATGTAC | -0.195
GAGACGGC | 0.151
CGGCACCA | 0.191
GATTAAGA | 0.0498
GGATCAGA | -0.0894

Sequence | PBM E-score
AATACCAA | -0.0497
AACTAATC | -0.047
GGTCGAAC | -0.142
GGTAGTAA | -0.167
AAGGTCGA | -0.0519
AGATTGCG | 0.14
GCGCGCTA | 0.0544
GTATCTCA | -0.0479
CACCGTCA | -0.00062
CAGAGCTG | -0.238
AATCAGAC | -0.0615
CTGGGAAA | -0.0994
AGTCATAA | 0.0358
GGAGAAAA | 0.299
AGATGACA | -0.145
TCATCTAA | -0.0192
TATCCGGA | 0.469
CCACAACG | 0.0154
GCCGTAAA | 0.193
CAATCGTG | 0.0226
CCGGGGCG | 0.42
CATCCACG | -0.153
GCCATGCA | -0.0698
ATTCTTTA | -0.162
GTCTAGTA | -0.0674

Sequence | PBM E-score
ATGGCTGC | -0.196
ACGGAACG | 0.271
ACTAGTTA | -0.145
CCTAATAC | -0.132
TCAGAAGA | -0.125
CTTATAAA | 0.0889
CGCAAACA | -0.0676
CAGTGGCC | -0.123
CCCCTTGC | -0.267
CAAATAGC | 0.00821
CTCCTGTA | 0.0539
ACGACCGC | 0.142
CGGGCAAC | 0.157
GTACCACA | -0.139
CATAATAG | -0.116
AGCTTCAT | 0.0699
CGACCCGC | -0.0064
CCATATCA | -0.0472
ACGCCTGG | -0.157
